# Measured values taken from a collection of fitness landscapes (doi:10.1126/science.1257360).
# Some of the results follow.
# B1: PhoQ; a variant is named by its letters at X, in order, P23837 (parent)
# chain: MKKLLRLFFPLSLRVRFLLATAAVVLVLSLAYGMVALIGYSVSFDKTTFRLLRGESNLFYTLAKWENNKLHVELPENIDKQSPTMTLIYDENGQLLWAQRDVPWLMKMIQPDWLKSNGFHEIEADVNDTSLLLSGDHSIQQQLQEVREDDDDAEMTHSVAVNVYPATSRMPKLTIVVVDTIPVELKSSYMVWSWFIYVLSANLLLVIPLLWVAAWWSLRPIEALAKEVRELEEHNRELLNPATTRELTSLVRNLNRLLKSERERYDKYRTTLTDLTHSLKTPLXXLQXXLRSLRSEKMSVSDAEPVMLEQISRISQQIGYYLHRASMRGGTLLSRELHPVAPLLDNLTSALNKVYQRKGVNISLDISPEISFVGEQNDFVEVMGNVLDNACKYCLEFVEISARQTDEHLYIVVEDDGPGIPLSKREVIFDRGQRVDTLRPGQGVGLAVAREITEQYEGKIVAGESMLGGARMEVIFGRQHSAPKDE
# Variants of: B1
# Test: enrichment ratio after two sorts for PhoP signalling (ratio (wild type AVST 3.29)); higher = more functional
# Conditions: with PhoP (E. coli)
row,Variant,enrichment ratio
1,FQNF,≤ 0.25
2,TQSD,7.88
3,CLNL,≤ 0.25
4,VHIY,≤ 0.25
5,TDTN,≤ 0.25
6,PIHN,≤ 0.25
7,WYNS,≤ 0.25
8,YSGL,≤ 0.25
9,WPIN,≤ 0.25
10,ATEN,≤ 0.25
11,NPVL,≤ 0.25
12,SYRH,≤ 0.25
13,NACP,≤ 0.25
14,YYMI,≤ 0.25
15,FRKD,≤ 0.25
16,GPGW,≤ 0.25
17,FTFD,≤ 0.25
18,GNGF,≤ 0.25
19,QHLT,≤ 0.25
20,IHLD,≤ 0.25
21,VCFC,≤ 0.25
22,KLGS,≤ 0.25
23,NGRN,≤ 0.25
24,MYNM,≤ 0.25

row,Variant,enrichment ratio
1,WAIL,≤ 0.25
2,KSQR,≤ 0.25
3,GTSP,≤ 0.25
4,GDIC,3.68
5,AAMR,≤ 0.25
6,PPLQ,≤ 0.25
7,TMNA,24.8
8,LHQT,≤ 0.25
9,PKMD,≤ 0.25
10,IPHE,≤ 0.25
11,FYKF,≤ 0.25
12,GMKF,0.412
13,LFMT,≤ 0.25
14,MPFI,≤ 0.25
15,YYIG,≤ 0.25
16,EFVK,≤ 0.25
17,GGFE,≤ 0.25
18,QFTE,≤ 0.25
19,KFTW,≤ 0.25
20,IFEA,≤ 0.25
21,HDWT,≤ 0.25
22,KTTR,≤ 0.25
23,ESDD,≤ 0.25
24,YERY,≤ 0.25

row,Variant,enrichment ratio
1,HQGW,≤ 0.25
2,QGWF,18.8
3,LGHT,≤ 0.25
4,SCCQ,13.2
5,AVAG,4.16
6,APVM,≤ 0.25
7,TVYD,≤ 0.25
8,QLTW,≤ 0.25
9,VFTK,≤ 0.25
10,GYHE,≤ 0.25
11,WPTI,≤ 0.25
12,ECTG,≤ 0.25
13,RNVG,≤ 0.25
14,SWDT,≤ 0.25
15,YIVQ,≤ 0.25
16,EIPY,≤ 0.25
17,MNIL,2.73
18,HFAI,≤ 0.25
19,FVMS,≤ 0.25
20,YPFY,≤ 0.25
21,THMY,0.601
22,DKPN,≤ 0.25
23,VASK,≤ 0.25
24,SNGK,≤ 0.25

row,Variant,enrichment ratio
1,VDHF,≤ 0.25
2,HLYQ,≤ 0.25
3,WFLM,≤ 0.25
4,QLML,≤ 0.25
5,NWIG,≤ 0.25
6,TTDN,≤ 0.25
7,HFVD,≤ 0.25
8,EDIP,≤ 0.25
9,MLES,≤ 0.25
10,QFVH,≤ 0.25
11,WCYF,≤ 0.25
12,CLRD,≤ 0.25
13,VMLW,≤ 0.25
14,FGYD,≤ 0.25
15,LDGY,≤ 0.25
16,MTVG,≤ 0.25
17,TNSA,10.8
18,MVGS,≤ 0.25
19,SAQY,1.82
20,TIRG,≤ 0.25
21,DRWY,≤ 0.25
22,MGQG,≤ 0.25
23,TWTD,≤ 0.25
24,RWVD,≤ 0.25

row,Variant,enrichment ratio
1,FEDW,≤ 0.25
2,QKAC,≤ 0.25
3,VWCC,≤ 0.25
4,LFAV,≤ 0.25
5,WHWM,≤ 0.25
6,GKQN,≤ 0.25
7,HSDA,≤ 0.25
8,MCLR,≤ 0.25
9,PMEG,≤ 0.25
10,YYED,≤ 0.25
11,KCGH,≤ 0.25
12,TFSP,≤ 0.25
13,FQAG,≤ 0.25
14,GMKH,≤ 0.25
15,AFLE,≤ 0.25
16,MMCG,≤ 0.25
17,EADP,≤ 0.25
18,DFGQ,≤ 0.25
19,HSIT,≤ 0.25
20,WHAN,≤ 0.25
21,VGHW,≤ 0.25
22,RGNE,≤ 0.25
23,RFHD,≤ 0.25
24,YHDE,≤ 0.25

row,Variant,enrichment ratio
1,KYVD,≤ 0.25
2,ICII,≤ 0.25
3,HCDK,≤ 0.25
4,YCVF,≤ 0.25
5,NARY,≤ 0.25
6,HECK,≤ 0.25
7,FQTP,≤ 0.25
8,NGGS,≤ 0.25
9,HWRT,≤ 0.25
10,IPQY,≤ 0.25
11,YCNQ,≤ 0.25
12,WFTD,≤ 0.25
13,GGVC,≤ 0.25
14,MKQP,≤ 0.25
15,HPEW,≤ 0.25
16,YRHR,≤ 0.25
17,NYME,≤ 0.25
18,AACV,16.2
19,AFFE,≤ 0.25
20,TQAC,4.85
21,IWAL,≤ 0.25
22,QNWR,≤ 0.25
23,IWKI,≤ 0.25
24,DKFQ,≤ 0.25

row,Variant,enrichment ratio
1,ETMD,≤ 0.25
2,PQYN,≤ 0.25
3,QFRA,≤ 0.25
4,PQHF,≤ 0.25
5,QHAG,≤ 0.25
6,DTMV,≤ 0.25
7,YFLL,≤ 0.25
8,IYFR,≤ 0.25
9,SRKC,≤ 0.25
10,FYPF,≤ 0.25
11,RDYC,≤ 0.25
12,AYGD,≤ 0.25
13,VECK,≤ 0.25
14,VRNP,≤ 0.25
15,TVLH,≤ 0.25
16,YWGP,≤ 0.25
17,WSIH,≤ 0.25
18,RIAR,≤ 0.25
19,CNFY,≤ 0.25
20,WMFW,≤ 0.25
21,HEQD,≤ 0.25
22,NIHP,≤ 0.25
23,LVLW,≤ 0.25
24,YFIE,≤ 0.25

row,Variant,enrichment ratio
1,NQFL,≤ 0.25
2,INHT,≤ 0.25
3,SCYN,≤ 0.25
4,VWMH,≤ 0.25
5,QYNW,≤ 0.25
6,SKMI,4.44
7,VCET,≤ 0.25
8,ECMS,≤ 0.25
9,WHML,≤ 0.25
10,NILC,≤ 0.25
11,GGMN,≤ 0.25
12,IMGQ,≤ 0.25
13,FNDE,≤ 0.25
14,GIKD,≤ 0.25
15,LPHQ,≤ 0.25
16,AKFN,≤ 0.25
17,SNLE,4.53
18,DVTR,≤ 0.25
19,GAKY,≤ 0.25
20,VTFF,≤ 0.25
21,RFSH,0.263
22,AGPQ,≤ 0.25
23,GSDT,≤ 0.25
24,GRCG,≤ 0.25

row,Variant,enrichment ratio
1,SGGR,≤ 0.25
2,PGRA,≤ 0.25
3,LKPK,≤ 0.25
4,IAQH,≤ 0.25
5,FQGI,≤ 0.25
6,HWCG,≤ 0.25
7,DIVD,≤ 0.25
8,ELVW,≤ 0.25
9,FIFR,≤ 0.25
10,EMNQ,≤ 0.25
11,FGRT,≤ 0.25
12,LFLD,≤ 0.25
13,QFWP,≤ 0.25
14,QYPE,≤ 0.25
15,HFYG,≤ 0.25
16,FAGS,≤ 0.25
17,FMYF,≤ 0.25
18,DIHL,≤ 0.25
19,NGDW,≤ 0.25
20,KHCC,≤ 0.25
21,VNDK,≤ 0.25
22,GPNF,≤ 0.25
23,TRSK,≤ 0.25
24,LVKK,≤ 0.25

row,Variant,enrichment ratio
1,VYHV,≤ 0.25
2,RCSK,≤ 0.25
3,KPEI,≤ 0.25
4,MCHI,5.13
5,GGIR,≤ 0.25
6,NWVQ,≤ 0.25
7,NIKN,≤ 0.25
8,RQGK,≤ 0.25
9,APHP,≤ 0.25
10,DTFG,≤ 0.25
11,DKEC,≤ 0.25
12,FLCV,≤ 0.25
13,HNVF,≤ 0.25
14,FQWK,≤ 0.25
15,FELD,≤ 0.25
16,MVFK,1.09
17,DHHA,≤ 0.25
18,MRFE,≤ 0.25
19,NSTM,≤ 0.25
20,LELQ,3.51
21,NYNK,≤ 0.25
22,AHKQ,≤ 0.25
23,AKLH,14.6
24,QFRN,≤ 0.25

row,Variant,enrichment ratio
1,HDHY,≤ 0.25
2,QQYF,6.45
3,KVSM,≤ 0.25
4,SHSM,10.7
5,STFS,≤ 0.25
6,RSCL,≤ 0.25
7,FMIN,≤ 0.25
8,TVHC,≤ 0.25
9,VDQT,≤ 0.25
10,WKVT,≤ 0.25
11,AWQD,≤ 0.25
12,PMWY,≤ 0.25
13,QMRN,≤ 0.25
14,SQGS,7.13
15,TFTW,≤ 0.25
16,GIWS,≤ 0.25
17,FPFV,≤ 0.25
18,PNPL,≤ 0.25
19,LFEE,≤ 0.25
20,EQFF,≤ 0.25
21,NMQE,≤ 0.25
22,TMYN,1.79
23,DSLP,≤ 0.25
24,APQN,≤ 0.25

row,Variant,enrichment ratio
1,GICP,≤ 0.25
2,SQSY,8.96
3,CSFI,≤ 0.25
4,HGLQ,9.3
5,PCTF,≤ 0.25
6,DMDW,≤ 0.25
7,NVNP,≤ 0.25
8,YLDY,≤ 0.25
9,YVVF,≤ 0.25
10,IFAY,≤ 0.25
11,VWAD,≤ 0.25
12,DNWQ,≤ 0.25
13,KNRN,≤ 0.25
14,DVEM,≤ 0.25
15,AFNH,≤ 0.25
16,GTVQ,0.46
17,SKNG,≤ 0.25
18,QCFM,≤ 0.25
19,PNSF,≤ 0.25
20,HPAP,≤ 0.25
21,ITPH,≤ 0.25
22,MECI,12.8
23,VESI,≤ 0.25
24,NAKS,≤ 0.25

row,Variant,enrichment ratio
1,LPFP,≤ 0.25
2,AVQK,≤ 0.25
3,WEYK,≤ 0.25
4,WHSY,≤ 0.25
5,TQNP,≤ 0.25
6,QTCL,≤ 0.25
7,ALMF,3.38
8,FERM,≤ 0.25
9,DPQP,≤ 0.25
10,GHTY,≤ 0.25
11,FFQQ,≤ 0.25
12,KKHF,≤ 0.25
13,RQTV,≤ 0.25
14,ALKL,≤ 0.25
15,QNSL,2.32
16,DFTH,≤ 0.25
17,DKRW,≤ 0.25
18,EQYT,≤ 0.25
